Drawing on the GPR68 mutational scans of Howard et al. (2025), this text covers cAMP reporter score and surface expression score for 30 variants.

B1: GPR68, Q15743 (parent)
chain: MGNITADNSSMSCTIDHTIHQTLAPVVYVTVLVVGFPANCLSLYFGYLQIKARNELGVYLCNLTVADLFYICSLPFWLQYVLQHDNWSHGDLSCQVCGILLYENIYISVGFLCCISVDRYLAVAHPFRFHQFRTLKAAVGVSVVIWAKELLTSIYFLMHEEVIEDENQHRVCFEHYPIQAWQRAINYYRFLVGFLFPICLLLASYQGILRAVRRSHGTQKSRKDQIQRLVLSTVVIFLACFLPYHVLLLVRSVWEASCDFAKGVFNAYHFSLLLTSFNCVADPVLYCFVSETTHRDLARLRGACLAFLTCSRTGRAREAYPLGAPEASGKSGAQGEEPELLTKLHPAFQTPNSPGSGGFPTGRLA

Data set [1] covers variants of B1. Put plainly: cAMP reporter score (Enrich2 score, wild type = 0); higher = more signal; HEK293T, FACS bins.
Data set [2] covers variants of B1. Put plainly: surface expression score (Enrich2 score, wild type = 0); higher = more signal; HEK293T, FACS bins.

The least precise scores are not listed. The source holds two more conditions with little spread; they are left out. Names with del lack the residues named; names with ins carry added residues between the positions named. For part of these data: The data file names ogerin without a concentration.

Consider G302H, for which the cAMP reporter score is 0.173 in data set [1] (pH 5.5); -0.155 in data set [1] (pH 6); 0.406 in data set [1] (pH 6, modulator: ogerin); -0.041 in data set [1] (pH 6.5, modulator: ogerin). In data set [2], the surface expression score stood at 0.633.
In the case of G302Y, the cAMP reporter score was 0.027 in data set [1] (pH 5.5); 0.042 in data set [1] (pH 6); 0.274 in data set [1] (pH 6, modulator: ogerin); -0.55 in data set [1] (pH 6.5, modulator: ogerin). In addition, the surface expression score in data set [2] is -0.82.
The like results for G302P were, in that order, 1.37, 0.371, 0.774, 0.281 and 0.696.
For G302C, in that order: -0.046, -0.87, -0.204, -0.043 and -0.456.
Turning to G302V, the cAMP reporter score in data set [1] (pH 5.5) was 0.27; in data set [1] (pH 6), -1.13; in data set [1] (pH 6, modulator: ogerin), 0.407; in data set [1] (pH 6.5, modulator: ogerin) it was -0.05. The surface expression score in data set [2] was -1.09.
G302E: the cAMP reporter score in data set [1] (pH 5.5) is 0.661; in data set [1] (pH 6), -0.196; in data set [1] (pH 6, modulator: ogerin) it was 0.61; in data set [1] (pH 6.5, modulator: ogerin) it was 0.591. Further, the surface expression score in data set [2] is 0.89.
For G302D, the cAMP reporter score in data set [1] (pH 5.5) came out at 1.16; in data set [1] (pH 6), 2.35; in data set [1] (pH 6, modulator: ogerin) it was 1.98; in data set [1] (pH 6.5, modulator: ogerin), 2.19. The surface expression score in data set [2] amounted to 2.2.
The like results for G302F were, in that order, -0.327, -1.33, -0.431, -0.084 and -1.08.
The like results for G302K were, in that order, 0.513, 1.52, 0.743, 0.697 and 1.13.
The like results for G302T were, in that order, 0.807, 0.632, 1.18, 0.854 and 1.31.
With G302S, the cAMP reporter score in data set [1] (pH 5.5) is 0.358; in data set [1] (pH 6), -0.257; in data set [1] (pH 6, modulator: ogerin), 0.418; in data set [1] (pH 6.5, modulator: ogerin), 0.656. In data set [2], the surface expression score was -0.351.
For G302M, in that order: 0.71, 0.782, 1.45, 1.23 and 0.563.
For R295_D296del, the cAMP reporter score is -0.525 in data set [1] (pH 5.5); -0.916 in data set [1] (pH 6); -0.727 in data set [1] (pH 6, modulator: ogerin); -0.729 in data set [1] (pH 6.5, modulator: ogerin). The surface expression score in data set [2] is -0.292.
For Y286_C287del, in that order: -1.75, -1.21, -1.31, -0.593 and -1.71.
For H294_R295insG, in that order: -1.6, -1.4, -0.461, -1.06 and -0.134.
As to Y286del, the cAMP reporter score in data set [1] (pH 5.5) was -0.105; in data set [1] (pH 6), -0.58; in data set [1] (pH 6, modulator: ogerin) it was -1.48; in data set [1] (pH 6.5, modulator: ogerin) it was -1.02. Further, the surface expression score in data set [2] was -1.46.
As for A303_C304insG, the cAMP reporter score in data set [1] (pH 5.5) is -0.528; in data set [1] (pH 6), -0.671; in data set [1] (pH 6, modulator: ogerin), -0.768; in data set [1] (pH 6.5, modulator: ogerin), -1.67. Further, in data set [2], the surface expression score is -1.23.
For L300_R301insGS, in that order: -0.968, -0.943, -1.06, -0.961 and -0.806.
T292_T293insGSG: the cAMP reporter score is -1.73 in data set [1] (pH 5.5); -1.32 in data set [1] (pH 6); -1.53 in data set [1] (pH 6, modulator: ogerin); -1.21 in data set [1] (pH 6.5, modulator: ogerin). Moreover, the surface expression score in data set [2] is -0.147.
For A303_L305del, in that order: 0.569, 0.584, 0.069, 0.37 and 0.115.
The like results for L300_R301insGSG were, in that order, -0.49, -0.315, -0.393, -0.709 and -0.17.
For R301_G302insGSG, in that order: 0.509, -0.141, 0.797, 0.405 and -0.218.
G302_A303del: the cAMP reporter score in data set [1] (pH 5.5) was -0.269; in data set [1] (pH 6) it was -0.343; in data set [1] (pH 6, modulator: ogerin), -0.648; in data set [1] (pH 6.5, modulator: ogerin) it was -0.106. The surface expression score in data set [2] is -0.534.
In the case of C287_F288insG, the cAMP reporter score in data set [1] (pH 5.5) was -0.044; in data set [1] (pH 6) it was -0.023; in data set [1] (pH 6, modulator: ogerin) it was -0.917; in data set [1] (pH 6.5, modulator: ogerin), -0.746. The surface expression score in data set [2] was -1.9.
L297del: the cAMP reporter score is -1.36 in data set [1] (pH 5.5); -0.694 in data set [1] (pH 6); -1.82 in data set [1] (pH 6, modulator: ogerin); -1.2 in data set [1] (pH 6.5, modulator: ogerin). In addition, the surface expression score in data set [2] was -0.548.
With C287del, the cAMP reporter score in data set [1] (pH 5.5) was -1.6; in data set [1] (pH 6), -0.885; in data set [1] (pH 6, modulator: ogerin), -1.72; in data set [1] (pH 6.5, modulator: ogerin), -1.23. In addition, the surface expression score in data set [2] is -1.55.
For E291_T293del, in that order: -1.37, -0.666, -1.44, -0.849 and 0.021.
Take Y286P: the cAMP reporter score is -0.82 in data set [1] (pH 5.5); 0.066 in data set [1] (pH 6); -1.09 in data set [1] (pH 6, modulator: ogerin); -0.87 in data set [1] (pH 6.5, modulator: ogerin). Also, the surface expression score in data set [2] is -1.39.
With Y286N, the cAMP reporter score is -0.549 in data set [1] (pH 5.5); -0.271 in data set [1] (pH 6); -1.22 in data set [1] (pH 6, modulator: ogerin); -1.19 in data set [1] (pH 6.5, modulator: ogerin). Further, the surface expression score in data set [2] was -1.32.
With Y286W, the cAMP reporter score in data set [1] (pH 5.5) is -0.521; in data set [1] (pH 6), -0.977; in data set [1] (pH 6, modulator: ogerin) it was -0.649; in data set [1] (pH 6.5, modulator: ogerin), -0.319. Also, the surface expression score in data set [2] is 1.23.
